# Measurements as given in PubChem BioAssay (Tox21).
# “And” between values parts separate entries of the source, which are not always exact repeats. Equal values may be shown once. The shares of active, inactive and inconclusive entries below differ from those in the screen. For part of these data: Where the call is inconclusive, the potency comes from a doubtful curve fit. Some compounds were tested as several samples or in several runs, with calls that do not always agree. The source made the active and inactive calls. Unless noted, calls come from the whole dose curve.
# What was measured:
# [1] = qHTS assay to identify small molecule antagonists of the sonic hedgehog signaling (Shh) pathway (AID 1259369); conditions: NIH/3T3 Gli1-Luc reporter, Shh antagonist, luminescence 24 h; series mostly up to 92.4 µM; note: nearly all actives have a fitted effect of over 45% in size; note: potency is the fitted concentration of half-maximal effect; for activity change, negative = inhibition: % is set by controls: 0 for no effect and ±100 for the full control effect
# In short: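 Stable Gli1-Luc reporter NIH/3T3 clone; quantitative HTS in stimulated mode with conditioned medium. Luminescence measured after 24hr compound treatment at 37 C.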
# [2] = target: Estrogen receptor beta (Homo sapiens) (UniProt Q92731); test: qHTS assay to identify small molecule agonists of the estrogen receptor beta (ER-beta) signaling pathway (AID 1259377; active = well fitted activation curve with a large enough effect in the signal ratio in the repeat runs, not every such curve was filed as active; inconclusive = weak or mixed curves, or effect the other way; the % refers to the signal ratio; note: potency is the fitted concentration of half-maximal effect; for activation: % is set by controls: 0 for no effect and ±100 for the full control effect); conditions: ER-beta-UAS-bla HEK293T, beta-lactamase FRET ratio, 16 h; activation: at 92.4 µM (top of the series) unless noted
# In short: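 Agonist mode cell assay in GripTite HEK293T cells expressing an ER-beta fusion that drives beta-lactamase from an Upstream Activator Sequence; 16 hr compound exposure at 37C, then 2 h LiveBLAzer B/G FRET substrate at room temperature, fluorescence read-out.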
# [3] = target: Progesterone receptor (Homo sapiens) (UniProt P06401); test: qHTS assay to identify small molecule antagonists of the progesterone receptor (PR) signaling pathway (AID 1346795; active = well fitted inhibition curve with a large enough effect in the signal ratio in the repeat runs, not every such curve was filed as active; inconclusive = weak or mixed curves; the % refers to the signal ratio; note: potency is the fitted concentration of half-maximal effect; for activity change, negative = inhibition: % is set by controls: 0 for no effect and ±100 for the full control effect); conditions: PR-UAS-bla HEK293T, beta-lactamase FRET ratio, 16 h; activity change, negative = inhibition: at 92.4 µM (top of the series) unless noted
# In short: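 Antagonist mode: compounds tested against 1 nM (final) promegestone stimulation in HEK293T cells expressing PR-UAS-bla reporter, 16 hr at 37C, 5% CO2; beta-lactamase activity detected via B/G FRET substrate after 2 hr at room temperature.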
# [4] = qHTS assay to identify small molecule antagonists of the progesterone receptor (PR) signaling pathway - cell viability counter screen (AID 1346798; active = well fitted curve in the direction sought with a large enough effect in the repeat runs; inconclusive = weak or mixed curves; inactive = no such curve, though single readings can be large; an effect the other way counts as inactive or inconclusive; note: potency is the fitted concentration of half-maximal effect; nearly all actives have a fitted effect of over 50% in size); conditions: PR-UAS-bla HEK293T viability, CellTiter-Glo luminescence, 16 h; series mostly up to 92.4 µM
# In short: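 Counter screen for cytotoxicity: viability of PR-UAS-bla HEK293T cells was measured with CellTiter-Glo luminescence following 16 hr compound exposure in the presence of R5020.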
# [5] = qHTS assay to identify small molecule agonists of the progesterone receptor (PR) signaling pathway - cell viability counter screen (AID 1346799); conditions: PR-UAS-bla HEK293T viability, CellTiter-Glo luminescence, 16 h; series mostly up to 92.4 µM; note: nearly all actives have a fitted effect of over 45% in size; note: potency is the fitted concentration of half-maximal effect
# In short: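 Cells (PR-UAS-bla HEK293T) are plated at 3,000/well in 2% charcoal-stripped FBS medium, rested 6 hr, dosed and incubated 16 hr at 37C. CellTiter-Glo is then added and luminescence measured after 30 min at room temperature.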
# [6] = qHTS assay to identify small molecule agonists of the TGF-beta/Smad signaling pathway (AID 1346859; active = well fitted activation curve with a large enough effect in the signal ratio in the repeat runs, not every such curve was filed as active; inconclusive = weak or mixed curves; the % refers to the signal ratio; note: potency is the fitted concentration of half-maximal effect); conditions: SBE-bla HEK293T, TGF-beta/Smad beta-lactamase reporter, 5 h; activation: at 76.8 µM (top of the series)
# In short: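 Reporter line: HEK 293T with stably integrated SBE-controlled beta-lactamase. Compound exposure lasts 5 hr at 37 C and 5% CO2; substrate loading follows for 2 hr at room temperature, with emission read at 460 and 530 nm.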
# [7] = qHTS assay to identify small molecule agonists of the estrogen receptor beta (ER-beta) signaling pathway - cell viability counter screen (AID 1259380; active = well fitted curve in the direction sought with a large enough effect in the repeat runs; inconclusive = weak or mixed curves; inactive = no such curve, though single readings can be large; an effect the other way counts as inactive or inconclusive; note: potency is the fitted concentration of half-maximal effect; nearly all actives have a fitted effect of over 30% in size); conditions: ER-beta-bla HEK293T viability, CellTiter-Glo luminescence, 16 h; series mostly up to 92.4 µM
# In short: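 Steps: plate ER-beta-UAS-bla HEK293T cells, rest 6 hr; add compounds in DMSO; incubate 16 hr at 37C, 5% CO2; add FRET substrate 2 hr; add CellTiter-Glo, wait 30 min at room temperature; read luminescence.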
# [8] = qHTS assay to identify small molecule agonists of the androgen receptor (AR) signaling pathway in the presence of an antagonist - cell viability counter screen (AID 1259379; active = well fitted curve in the direction sought with a large enough effect in the repeat runs; inconclusive = weak or mixed curves; inactive = no such curve, though single readings can be large; an effect the other way counts as inactive or inconclusive; note: nearly all actives have a fitted effect of over 25% in size; note: potency is the fitted concentration of half-maximal effect); conditions: MDA-kb2 viability, CellTiter-Fluor, 16 h; series mostly up to 92.4 µM
# In short: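 Nilutamide-containing (3.0uM final) MDA-kb2 cultures, 3,000 cells/well, were treated with compounds across 15 concentrations. After 16 hr at 37C with no CO2, cell viability was determined by CellTiter-Fluor fluorescence in the luciferase assay wells.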
# [9] = qHTS assay to identify small molecule agonists or antagonists of the thyroid stimulating hormone receptor (TSHR) signaling pathway - wild type cell line counter screen (AID 1259384); conditions: HEK293 wild type, cAMP HTRF counter-screen; cAMP activity change: at 92.4 µM (top of the series), stronger effect = higher value unless noted; note: % is set by controls: 0 for no effect and ±100 for the full control effect
# In short: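 Counter screen in untransfected Hek293: compounds (15-point titration, triplicate) plus phosphodiesterase inhibitor Ro20-1724 added after 18 h plating; 30 min RT. Intracellular cAMP via competitive d2/cryptate immunoassay, 1 h incubation.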
# [10] = target: Thyrotropin receptor (Homo sapiens) (UniProt P16473); test: qHTS assay to identify small molecule antagonists of the thyroid stimulating hormone receptor (TSHR) signaling pathway (AID 1259385); conditions: TSHR-HEK293 cAMP HTRF, TSH-stimulated antagonist mode; activity change, negative = inhibition: at 92.4 µM (top of the series) unless noted; note: nearly all actives have a fitted effect of over 20% in size; note: potency is the fitted concentration of half-maximal effect
# In short: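 Antagonist mode: compound-treated TSHR-expressing HEK293 cells were stimulated with 1.5 ng/mL TSH (final) in presence of Ro20-1724 for 30 min at RT. HTRF cAMP detection after 1 h; each compound tested at 15 concentrations, triplicate.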
# [11] = target: Estrogen receptor beta (Homo sapiens) (UniProt Q92731); test: qHTS assay to identify small molecule antagonists of the estrogen receptor beta (ER-beta) signaling pathway (AID 1259378; active = well fitted inhibition curve with a large enough effect in the signal ratio in the repeat runs, not every such curve was filed as active; inconclusive = weak or mixed curves, or effect the other way; inactive = no such curve, though single readings can be large or run the other way; the % refers to the signal ratio; note: potency is the fitted concentration of half-maximal effect); conditions: ER-beta-UAS-bla HEK293T, beta-lactamase FRET ratio, 16 h; activity, negative = inhibition: at 92.4 µM (top of the series) unless noted
# In short: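 Antagonist mode: compounds added to beta-lactamase reporter HEK293T ER-beta-UAS cells stimulated with E2 (1nM final), 16 hr at 37C. LiveBLAzer B/G FRET substrate, 2 hours room temperature, fluorescence read-out.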
# [12] = qHTS assay to identify small molecule antagonists of the estrogen receptor beta (ER-beta) signaling pathway - cell viability counter screen (AID 1259382; active = well fitted curve in the direction sought with a large enough effect in the repeat runs; inconclusive = weak or mixed curves; inactive = no such curve, though single readings can be large; an effect the other way counts as inactive or inconclusive; note: potency is the fitted concentration of half-maximal effect; nearly all actives have a fitted effect of over 55% in size); conditions: ER-beta-UAS-bla HEK293T viability, CellTiter-Glo luminescence, 16 h; series mostly up to 92.4 µM
# In short: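 Viability is scored by CellTiter-Glo luminescence (30 min, room temperature) in ER-beta-UAS-bla HEK293T wells already read for reporter fluorescence. Compound exposure lasts 16 hr at 37C alongside 1nM 17-beta-estradiol in charcoal-stripped serum medium.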
# [13] = qHTS assay to identify small molecule agonists of the estrogen receptor alpha (ER-alpha) signaling pathway in the presence of an antagonist - cell viability counter screen (AID 1259386; active = well fitted curve in the direction sought with a large enough effect in the repeat runs; inconclusive = weak or mixed curves; inactive = no such curve, though single readings can be large; an effect the other way counts as inactive or inconclusive;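 note: cells exposed to compounds for 22 h at 37 °C before the viability read; % is set by controls: 0 for no effect and ±100 for the full control effect; nearly all actives have a fitted effect of over 30% in size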); conditions: VM7Luc4E2 viability, CellTiter-Fluor fluorescence, 22 h; series mostly up to 92.4 µM
# In short: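 In this counter screen, compound effects on VM7Luc4E2 viability were tested in the presence of the antagonist ICI-182,780 at 10.0nM final. Compounds were dosed at 15 concentrations, exposure lasted 22hr, and the CellTiter-Fluor signal was read.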
# [14] = target: Androgen receptor (Homo sapiens) (UniProt P10275); test: qHTS assay to identify small molecule agonists of the androgen receptor (AR) signaling pathway in the presence of an antagonist (AID 1259381); conditions: MDA-kb2 MMTV-luciferase, AR agonist + nilutamide, 16 h; series mostly up to 92.4 µM; note: potency is the fitted concentration of half-maximal effect; nearly all actives have a fitted effect of over 15% in size
# In short: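 Reporter-gene luminescence from MDA-kb2 cells exposed 16hr at 37C (0% CO2) to 15-point compound titrations with 3.0uM final nilutamide as AR antagonist.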
# Tags give direction and shape of the fitted curve or compound fluorescence and quenching.
# Chain of UniProt P06401 (P06401 whole entry, looked up): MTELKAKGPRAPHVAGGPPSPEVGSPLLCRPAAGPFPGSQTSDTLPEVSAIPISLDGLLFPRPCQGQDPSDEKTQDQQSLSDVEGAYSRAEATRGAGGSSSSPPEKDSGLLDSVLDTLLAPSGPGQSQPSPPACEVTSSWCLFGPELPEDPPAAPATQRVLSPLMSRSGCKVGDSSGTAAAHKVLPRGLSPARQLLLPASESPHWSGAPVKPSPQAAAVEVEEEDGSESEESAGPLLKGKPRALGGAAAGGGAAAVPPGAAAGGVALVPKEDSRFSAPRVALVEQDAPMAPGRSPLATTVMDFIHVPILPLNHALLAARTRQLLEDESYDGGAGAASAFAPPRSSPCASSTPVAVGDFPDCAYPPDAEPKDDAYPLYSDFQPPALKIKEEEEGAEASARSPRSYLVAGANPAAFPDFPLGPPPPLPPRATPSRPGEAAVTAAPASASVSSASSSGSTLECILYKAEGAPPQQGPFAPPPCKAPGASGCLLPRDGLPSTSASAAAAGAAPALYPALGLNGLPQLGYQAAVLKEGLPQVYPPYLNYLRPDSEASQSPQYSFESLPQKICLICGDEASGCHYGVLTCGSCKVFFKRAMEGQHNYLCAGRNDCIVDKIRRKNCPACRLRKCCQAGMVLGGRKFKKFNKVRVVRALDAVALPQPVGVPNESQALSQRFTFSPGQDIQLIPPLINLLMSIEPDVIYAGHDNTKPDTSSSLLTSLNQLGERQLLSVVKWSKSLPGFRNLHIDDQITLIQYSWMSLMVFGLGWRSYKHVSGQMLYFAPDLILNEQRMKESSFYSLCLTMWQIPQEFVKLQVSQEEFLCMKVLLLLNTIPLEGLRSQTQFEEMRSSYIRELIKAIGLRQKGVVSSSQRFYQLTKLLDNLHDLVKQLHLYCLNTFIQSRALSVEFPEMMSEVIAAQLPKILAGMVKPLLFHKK
# Chain of UniProt P16473 (P16473 whole entry, looked up): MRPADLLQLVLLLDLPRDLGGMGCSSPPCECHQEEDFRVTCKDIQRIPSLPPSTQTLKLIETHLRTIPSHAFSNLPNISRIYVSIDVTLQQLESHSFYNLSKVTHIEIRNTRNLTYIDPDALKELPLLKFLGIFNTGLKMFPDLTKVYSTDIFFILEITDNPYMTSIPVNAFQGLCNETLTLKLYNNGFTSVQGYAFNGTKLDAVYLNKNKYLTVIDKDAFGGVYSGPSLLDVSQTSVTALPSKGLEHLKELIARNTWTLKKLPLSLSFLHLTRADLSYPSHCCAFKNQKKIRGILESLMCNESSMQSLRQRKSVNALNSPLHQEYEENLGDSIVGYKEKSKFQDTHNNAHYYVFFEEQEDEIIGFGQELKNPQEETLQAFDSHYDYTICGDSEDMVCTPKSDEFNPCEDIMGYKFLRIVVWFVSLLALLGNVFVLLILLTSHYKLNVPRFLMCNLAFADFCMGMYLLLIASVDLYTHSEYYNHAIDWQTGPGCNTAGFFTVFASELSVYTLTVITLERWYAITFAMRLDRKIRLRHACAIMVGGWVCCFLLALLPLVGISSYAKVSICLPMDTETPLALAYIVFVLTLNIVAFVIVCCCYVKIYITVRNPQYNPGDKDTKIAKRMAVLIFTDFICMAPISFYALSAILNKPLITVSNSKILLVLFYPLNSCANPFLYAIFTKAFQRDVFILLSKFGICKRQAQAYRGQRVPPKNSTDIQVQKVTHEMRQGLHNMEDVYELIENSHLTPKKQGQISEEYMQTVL
# Chain of UniProt Q92731 (Q92731 whole entry, looked up, the tested form may be a part): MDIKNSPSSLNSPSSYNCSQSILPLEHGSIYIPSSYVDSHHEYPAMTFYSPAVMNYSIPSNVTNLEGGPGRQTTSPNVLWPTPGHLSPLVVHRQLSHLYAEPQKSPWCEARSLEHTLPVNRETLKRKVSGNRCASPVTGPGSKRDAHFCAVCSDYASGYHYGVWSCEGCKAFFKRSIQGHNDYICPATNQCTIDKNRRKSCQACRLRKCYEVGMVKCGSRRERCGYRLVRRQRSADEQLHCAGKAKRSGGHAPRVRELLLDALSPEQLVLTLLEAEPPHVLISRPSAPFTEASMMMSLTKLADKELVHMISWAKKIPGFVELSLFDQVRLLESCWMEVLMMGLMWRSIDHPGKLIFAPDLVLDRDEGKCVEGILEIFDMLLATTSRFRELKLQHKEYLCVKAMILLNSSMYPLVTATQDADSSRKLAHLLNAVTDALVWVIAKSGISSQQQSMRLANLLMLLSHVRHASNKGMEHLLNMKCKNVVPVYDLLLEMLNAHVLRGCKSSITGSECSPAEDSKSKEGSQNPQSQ
# Chain of UniProt P10275 (P10275 whole entry, looked up): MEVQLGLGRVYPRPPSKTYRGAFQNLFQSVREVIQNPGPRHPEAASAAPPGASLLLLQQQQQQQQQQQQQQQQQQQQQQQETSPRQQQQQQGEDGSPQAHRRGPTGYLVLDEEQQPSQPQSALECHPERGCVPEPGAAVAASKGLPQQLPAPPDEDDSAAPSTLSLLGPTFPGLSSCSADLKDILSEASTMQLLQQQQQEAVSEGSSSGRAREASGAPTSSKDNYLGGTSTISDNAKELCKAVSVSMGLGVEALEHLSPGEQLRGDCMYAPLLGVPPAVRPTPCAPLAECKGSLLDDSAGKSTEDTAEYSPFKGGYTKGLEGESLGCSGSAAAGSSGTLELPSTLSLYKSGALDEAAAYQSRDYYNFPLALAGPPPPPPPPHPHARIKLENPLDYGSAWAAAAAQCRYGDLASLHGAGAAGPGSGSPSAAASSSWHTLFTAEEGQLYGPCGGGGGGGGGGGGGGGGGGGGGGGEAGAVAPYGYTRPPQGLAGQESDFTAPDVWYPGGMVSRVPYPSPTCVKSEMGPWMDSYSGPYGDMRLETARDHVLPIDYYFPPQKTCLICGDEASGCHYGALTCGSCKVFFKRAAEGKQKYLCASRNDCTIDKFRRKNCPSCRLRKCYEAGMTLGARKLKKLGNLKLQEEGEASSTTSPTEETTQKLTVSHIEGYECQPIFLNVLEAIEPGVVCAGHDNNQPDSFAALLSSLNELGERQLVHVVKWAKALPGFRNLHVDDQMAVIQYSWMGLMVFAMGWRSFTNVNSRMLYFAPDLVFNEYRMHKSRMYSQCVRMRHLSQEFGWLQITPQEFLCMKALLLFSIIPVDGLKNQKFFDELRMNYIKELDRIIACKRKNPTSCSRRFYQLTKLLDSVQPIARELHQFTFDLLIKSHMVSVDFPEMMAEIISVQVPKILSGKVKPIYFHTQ
smiles,measurement,setting,value
O=S(=O)(O)C(F)(F)F,Potency,[1],"inconclusive: 27.3 µM [inhibitor, single point]"
same,Potency,[2],inactive
same,"activity change, negative = inhibition",[3],inconclusive: 0.184%
same,Potency,[4],"inconclusive: 1.54 µM [rising, partial curve, poor fit]"
C=C(C)C(=O)OCC(C)C,Potency,[1],active: 0.619 µM
same,Potency,[2],inactive
same,Potency,[5],"inconclusive: 24.7 µM [rising, single point]"
same,Potency,[6],inconclusive: 49.6 µM [activator]
CCCCCCCCCCCCCC(=O)O,Potency,[1],"inactive and inconclusive: 24.3 µM [inhibitor, partial curve, poor fit]"
same,Potency,[2],"inconclusive: 60.9 µM [rising, partial curve]"
same,Potency,[7],active: 43.1 µM and active: 61.1 µM
O=C(c1ccc(O)cc1)c1ccc(O)cc1,Potency,[1],"inconclusive: 27.3 µM [inhibitor, full curve, poor fit]"
same,Potency,[2],active: 6.11 µM
same,Potency,[8],inactive
same,cAMP activity change,[9],inconclusive: 0.417%
same,Potency,[10],inactive
same,Potency,[3],active: 48.6 µM
same,Potency,[4],"inconclusive: 68.6 µM [rising, single point]"
same,Potency,[5],"inconclusive: 68.6 µM [rising, single point]"
Brc1c(NC2=NCCN2)ccc2nccnc12,Potency,[1],inactive
same,Potency,[2],"inconclusive: 33.5 µM [falling, single point]"
same,Potency,[7],"inconclusive: 33.5 µM [cytotoxic, single point]"
same,Potency,[10],inactive
CC(C)c1nnc2ccc(-c3ocnc3-c3cc(F)ccc3F)cn12,Potency,[1],active: 1.09 µM
same,Potency,[2],inactive
same,"activity, negative = inhibition",[11],inconclusive: -51.9%
same,"activity change, negative = inhibition",[3],inconclusive: -39.4%
same,Potency,[4],"inconclusive: 61.1 µM [rising, partial curve]"
same,Potency,[5],"inconclusive: 54.5 µM [rising, single point]"
same,Potency,[6],"inconclusive: 17.4 µM [rising, partial curve]"
Cc1ccccc1C(OCCN(C)C)c1ccccc1 (stereo not drawn),Potency,[1],"inconclusive: 15.4 µM [inhibitor, full curve] and active: 27.3 µM and inconclusive: 8.41 µM [inhibitor, full curve, poor fit]"
same,Potency,[2],inactive
same,Potency,[7],"active: 61.1 µM and inconclusive: 77 µM [cytotoxic, single point] and inconclusive: 33.5 µM [cytotoxic, single point]"
same,Potency,[12],"inconclusive: 30.6 µM [cytotoxic, partial curve] and inconclusive: 54.5 µM [cytotoxic, partial curve]"
same,Potency,[10],"inconclusive: 54.5 µM [falling, partial curve, poor fit]"
same,Potency,[4],"inconclusive: 54.5 µM [cytotoxic, partial curve] and inconclusive: 61.1 µM [cytotoxic] and inconclusive: 33.5 µM [cytotoxic, single point]"
same,Potency,[5],"inconclusive: 27.3 µM [cytotoxic, partial curve, poor fit] and inconclusive: 30.6 µM [cytotoxic, partial curve]"
CC(C)OP(=O)(CP(=O)(OC(C)C)OC(C)C)OC(C)C,Potency,[1],inactive and active: 1.19 µM
same,Potency,[2],inactive
same,Potency,[13],inactive
same,Potency,[4],"inconclusive: 1.37 µM [cytotoxic, single point]"
same,Potency,[6],inactive
NC(=O)C1CO1 (stereo not drawn),Potency,[1],inactive
same,Potency,[2],inactive
same,Potency,[14],"inconclusive: 24.3 µM [rising, partial curve, poor fit]"
N[C@H](Cc1c[nH]c2ccccc12)C(=O)O,Potency,[1],inactive
same,activation,[2],inconclusive: 9.4% [at 42.5 µM]
same,Potency,[7],"inconclusive: 68.6 µM [rising, partial curve, poor fit]"
same,Potency,[3],inactive
O=c1[nH][nH]c2ccccc12,Potency,[1],inactive
same,activation,[2],inconclusive: 3.39%
same,Potency,[7],"inconclusive: 27.8 µM [cytotoxic, partial curve]"
same,Potency,[12],"inconclusive: 31.2 µM [cytotoxic, full curve, poor fit]"
same,"activity change, negative = inhibition",[3],inconclusive: -36.8%
same,Potency,[5],inactive
N#C/C(=C1/SC[C@@H](c2ccc(Cl)cc2Cl)S1)n1ccnc1,Potency,[1],"inconclusive: 9.44 µM [inhibitor, full curve, poor fit]"
same,Potency,[11],"inconclusive: 29.8 µM [rising, partial curve, poor fit]"
same,Potency,[8],"inconclusive: 33.5 µM [cytotoxic, single point]"
same,Potency,[10],inconclusive: 33.5 µM
same,Potency,[13],inactive
same,Potency,[3],inconclusive: 11.9 µM
same,Potency,[4],"inconclusive: 10.6 µM [rising, partial curve]"
same,Potency,[5],"inconclusive: 13.3 µM [rising, single point]"
